# Experimental data taken from the supplement of paper PMC8728848.
# The other results are listed elsewhere or left out.
# B1: Jacalin (Artocarpus integrifolia) (protein)
# chain: MAYSSLLSLSVLALLFSISSADTRKWFLANGINQNPIGIIEAAVGVSEDLLNLNGMEAKNDEQSGISQTVIVGPWGAKVSTSSNGKAFDDGAFTGIREINLSYNKETAIGDFQVVYDLNGSPYVGQNHKSFITGFTPVKISLDFPSEYIMEVSGYTGNVSGYVVVRSLTFKTNKKTYGPYGVTSGTPFNLPIENGLIVGFKGSIGYWLDYFSMYLSL
# Tests used:
# Experiment in all cases: glycan array binding signal (z-score within array); higher = stronger binding
# Details in all cases: glycan notation: IUPAC condensed, linker removed
# [1] = biological target: Gal(b1-4)GlcNAc(b1-2)Man(a1-3)[Gal(b1-4)GlcNAc(b1-2)Man(a1-6)][GlcNAc(b1-4)]Man(b1-4)GlcNAc(b1-4)[Fuc(a1-6)]GlcNAc
# Procedure, shortened: (§1)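 From the Consortium for Functional Glycomics database, 3228 arrays were curated, keeping only those whose protein sequence was available. Binding is given as a within-array Z-score averaged across arrays sharing a protein sequence and across linkers. Negative Z-scores can be read as non-binding.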
# [2] = biological target: Gal(b1-4)GlcNAc(b1-2)Man(a1-3)[GlcNAc(b1-2)Man(a1-6)]Man(b1-4)GlcNAc(b1-4)GlcNAc
# Procedure, shortened: as §1
# [3] = biological target: Gal(b1-4)GlcNAc(b1-2)Man(a1-3)[GlcNAc(b1-4)][Gal(b1-4)GlcNAc(b1-2)Man(a1-6)]Man(b1-4)GlcNAc(b1-4)GlcNAc
# Procedure, shortened: as §1
# [4] = biological target: Gal(b1-4)GlcNAc(b1-2)Man(a1-3)[Man(a1-6)]Man(b1-4)GlcNAc(b1-4)GlcNAc
# Procedure, shortened: as §1
# [5] = biological target: Gal(b1-4)GlcNAc(b1-2)Man(a1-6)Man(b1-4)GlcNAc(b1-4)GlcNAc
# Procedure, shortened: as §1
# [6] = biological target: Gal(b1-4)GlcNAc(b1-2)Man(a1-6)[GlcNAc(b1-2)Man(a1-3)]Man(b1-4)GlcNAc(b1-4)GlcNAc
# Procedure, shortened: as §1
# [7] = biological target: Gal(b1-4)GlcNAc(b1-2)Man(a1-6)[Man(a1-3)]Man(b1-4)GlcNAc(b1-4)GlcNAc
# Procedure, shortened: as §1
# [8] = biological target: Gal(b1-4)GlcNAc(b1-2)[Gal(b1-4)GlcNAc(b1-4)]Man(a1-3)[Gal(b1-4)GlcNAc(b1-2)Man(a1-6)]Man(b1-4)GlcNAc(b1-4)GlcNAc
# Procedure, shortened: as §1
# [9] = biological target: Gal(b1-4)GlcNAc(b1-2)[Gal(b1-4)GlcNAc(b1-4)]Man(a1-3)[Gal(b1-4)GlcNAc(b1-2)[Gal(b1-4)GlcNAc(b1-6)]Man(a1-6)]Man(b1-4)GlcNAc(b1-4)GlcNAc
# Procedure, shortened: as §1
# [10] = biological target: Gal(b1-4)GlcNAc(b1-2)[Gal(b1-4)GlcNAc(b1-4)]Man(a1-3)[GlcNAc(b1-4)][Gal(b1-4)GlcNAc(b1-2)Man(a1-6)]Man(b1-4)GlcNAc(b1-4)GlcNAc
# Procedure, shortened: as §1
# [11] = biological target: Gal(b1-4)GlcNAc(b1-2)[Gal(b1-4)GlcNAc(b1-4)]Man(a1-3)[GlcNAc(b1-4)][Gal(b1-4)GlcNAc(b1-2)[Gal(b1-4)GlcNAc(b1-6)]Man(a1-6)]Man(b1-4)GlcNAc(b1-4)GlcNAc
# Procedure, shortened: as §1
# [12] = biological target: Gal(b1-4)GlcNAc(b1-2)[Gal(b1-4)GlcNAc(b1-6)]Man(a1-6)[Gal(b1-4)GlcNAc(b1-2)Man(a1-3)]Man(b1-4)GlcNAc(b1-4)GlcNAc
# Procedure, shortened: as §1
# [13] = biological target: Gal(b1-4)GlcNAc(b1-2)[Gal(b1-4)GlcNAc(b1-6)]Man(a1-6)[Gal(b1-4)GlcNAc(b1-2)Man(a1-3)]Man(b1-4)GlcNAc(b1-4)[Fuc(a1-6)]GlcNAc
# Procedure, shortened: as §1
# [14] = biological target: Gal(b1-4)GlcNAc(b1-2)[Gal(b1-4)GlcNAc(b1-6)]Man(a1-6)[GlcNAc(b1-4)][Gal(b1-4)GlcNAc(b1-2)Man(a1-3)]Man(b1-4)GlcNAc(b1-4)GlcNAc
# Procedure, shortened: as §1
# [15] = biological target: Gal(b1-4)GlcNAc(b1-2)[Gal(b1-4)GlcNAc(b1-6)]Man(a1-6)[GlcNAc(b1-4)][Gal(b1-4)GlcNAc(b1-2)[Gal(b1-4)GlcNAc(b1-4)]Man(a1-3)]Man(b1-4)GlcNAc(b1-4)[Fuc(a1-6)]GlcNAc
# Procedure, shortened: as §1
# [16] = biological target: Gal(b1-4)GlcNAc(b1-3)Gal(b1-3)GalNAc
# Procedure, shortened: as §1
# [17] = biological target: Gal(b1-4)GlcNAc(b1-3)Gal(b1-3)GlcNAc
# Procedure, shortened: as §1
# [18] = biological target: Gal(b1-4)GlcNAc(b1-3)Gal(b1-4)Glc
# Procedure, shortened: as §1
# [19] = biological target: Gal(b1-4)GlcNAc(b1-3)Gal(b1-4)GlcNAc
# Procedure, shortened: as §1
# [20] = biological target: Gal(b1-4)GlcNAc(b1-3)Gal(b1-4)GlcNAc(b1-2)Man(a1-3)[Gal(b1-4)GlcNAc(b1-3)Gal(b1-4)GlcNAc(b1-2)Man(a1-6)]Man(b1-4)GlcNAc(b1-4)GlcNAc
# Procedure, shortened: as §1
# [21] = biological target: Gal(b1-4)GlcNAc(b1-3)Gal(b1-4)GlcNAc(b1-2)Man(a1-3)[Gal(b1-4)GlcNAc(b1-3)Gal(b1-4)GlcNAc(b1-2)Man(a1-6)]Man(b1-4)GlcNAc(b1-4)[Fuc(a1-6)]GlcNAc
# Procedure, shortened: as §1
# [22] = biological target: Gal(b1-4)GlcNAc(b1-3)Gal(b1-4)GlcNAc(b1-2)[Gal(b1-4)GlcNAc(b1-3)Gal(b1-4)GlcNAc(b1-6)]Man(a1-6)[Gal(b1-4)GlcNAc(b1-3)Gal(b1-4)GlcNAc(b1-2)Man(a1-3)]Man(b1-4)GlcNAc(b1-4)GlcNAc
# Procedure, shortened: as §1
binder,measurement,setting,value
B1,glycan array binding signal (z-score),[1],-0.268
same,glycan array binding signal (z-score),[2],-0.24
same,glycan array binding signal (z-score),[3],-0.27
same,glycan array binding signal (z-score),[4],-0.211
same,glycan array binding signal (z-score),[5],-0.237
same,glycan array binding signal (z-score),[6],-0.153
same,glycan array binding signal (z-score),[7],-0.106
same,glycan array binding signal (z-score),[8],-0.262
same,glycan array binding signal (z-score),[9],-0.279
same,glycan array binding signal (z-score),[10],-0.247
same,glycan array binding signal (z-score),[11],-0.272
same,glycan array binding signal (z-score),[12],-0.269
same,glycan array binding signal (z-score),[13],0.164
same,glycan array binding signal (z-score),[14],-0.267
same,glycan array binding signal (z-score),[15],-0.268
same,glycan array binding signal (z-score),[16],1.06
same,glycan array binding signal (z-score),[17],-0.271
same,glycan array binding signal (z-score),[18],-0.275
same,glycan array binding signal (z-score),[19],-0.291
same,glycan array binding signal (z-score),[20],0.045
same,glycan array binding signal (z-score),[21],0.26
same,glycan array binding signal (z-score),[22],-0.2
